Test results reported in PubChem BioAssay AID1460 (National Center for Advancing Translational Sciences (NCATS), 2008).
Out of some 270,000 compounds screened, about 5,800 (2.1%) were called active. Inconclusive results, whose numbers are uncertain, are shown with a selection of clear calls. Calls follow the shape of the dose curve; as a rule, active = well fitted inhibition curve with a large enough effect; inconclusive = small, poorly fitted or top-dose-only effect; inactive = flat fitted curve, though single readings scatter. A potency beside an inconclusive call is a rough fit, not a confirmed value.

These compounds were tested against Microtubule-associated protein tau (Homo sapiens) (UniProt P10636) (assay: qHTS for Inhibitors of Tau Fibril Formation, Thioflavin T Binding). Settings: recombinant tau K18 P301L (four-repeat tau fragment), heparin-induced fibrillization, ThT fluorescence; series mostly up to 57.4 µM.
Chain of UniProt P10636 (P10636 whole entry, looked up, the tested form may be a part): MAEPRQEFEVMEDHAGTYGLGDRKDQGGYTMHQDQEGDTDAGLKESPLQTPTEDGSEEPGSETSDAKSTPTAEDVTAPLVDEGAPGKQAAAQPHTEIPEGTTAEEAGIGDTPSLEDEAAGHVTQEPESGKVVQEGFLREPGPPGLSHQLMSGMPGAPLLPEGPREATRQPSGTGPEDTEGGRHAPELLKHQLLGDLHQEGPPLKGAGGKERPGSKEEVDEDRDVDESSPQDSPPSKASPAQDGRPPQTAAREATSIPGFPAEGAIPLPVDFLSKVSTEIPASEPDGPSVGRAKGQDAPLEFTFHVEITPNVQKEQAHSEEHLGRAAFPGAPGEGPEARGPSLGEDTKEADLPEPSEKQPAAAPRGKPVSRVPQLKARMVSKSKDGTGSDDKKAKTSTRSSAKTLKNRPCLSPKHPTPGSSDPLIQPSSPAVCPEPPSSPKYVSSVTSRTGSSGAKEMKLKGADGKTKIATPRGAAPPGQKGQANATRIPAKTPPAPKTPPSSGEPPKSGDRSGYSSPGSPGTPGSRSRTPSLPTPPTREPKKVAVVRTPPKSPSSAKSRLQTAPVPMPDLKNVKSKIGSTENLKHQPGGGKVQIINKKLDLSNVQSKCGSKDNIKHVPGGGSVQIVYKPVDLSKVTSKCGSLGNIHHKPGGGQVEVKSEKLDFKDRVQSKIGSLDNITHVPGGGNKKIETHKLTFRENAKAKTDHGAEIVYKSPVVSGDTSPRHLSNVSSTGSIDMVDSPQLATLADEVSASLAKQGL
How it was run: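 Recombinant human tau K18 fragment […] carrying P301L, 15 uM unlabeled plus 0.24 uM Alexa 594-labeled, was fibrillized with 20 uM heparin in 100 mM sodium acetate pH 7 for 6 hr at 37 C; 30 uM ThT fluorescence read after 1 hr.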
% is scaled to controls: 0 for no effect and ±100 for the full control effect; potency is read from the fitted curve at half-maximal effect; tags tell the direction and shape of the fitted curve.
Also: nearly all actives have a fitted effect of over 55% in size.

SMILES	Potency	activity, negative = inhibition
Cc1ccc([N+](=O)[O-])cc1N/C=C/C(=O)c1ccco1	inconclusive: 7.94 µM [inhibitor, partial curve]	–
CCOc1ccccc1N1CCN(S(=O)(=O)c2ccc3c4c(cccc24)C(=O)N3)CC1	inconclusive: 39.8 µM [inhibitor, single point]	–
CC1=C(/C=C/C(=O)O)C(C)(C)CCC1	inactive	–
N#CC1=C(N)NC(SCc2ccccc2)=C(C#N)C12CCCCC2	inactive	–
COC(=O)C/C=C/C(C)C(OCc1cccc(Br)c1)C(C)C(OC)C1CCCCC1 (configuration not stated)	–	inactive: -13.5% [at 11.5 µM]
Cc1ccc(-c2nc3scc(CCNS(=O)(=O)c4c(C)noc4C)n3n2)cc1	inactive	–
O=c1[nH]c2ccc(S(=O)(=O)Nc3cc(Cl)ccc3O)cc2o1	inconclusive: 12.6 µM [inhibitor, partial curve]	–
CCOc1ccccc1CNC(=O)c1cc2oc3ccccc3c2n1CC	inconclusive: 10 µM [inhibitor, partial curve, poor fit]	–
COc1ccc(NC(=O)C2CCCN(S(=O)(=O)c3cccnc3)C2)c(OC)c1 (configuration not stated)	inactive	–
CCOC(=O)c1cccc(NC(=O)c2cccnc2)c1	inactive	–
COc1cc(/C=C2/C(=O)N(c3ccc([N+](=O)[O-])cc3)N=C2N2CCOCC2)ccc1O	inconclusive: 10 µM [inhibitor, partial curve]	–
Cc1ccn2c(-c3csc(NCc4ccccc4)n3)c(C)nc2c1	inconclusive: 20 µM [inhibitor, partial curve]	–
Cc1ccsc1/C=N/N=C1\C(=O)Nc2ccccc21	active: 14.1 µM	–
COc1ccc(C2=NN(c3ccccc3)C(=O)/C2=C\c2ccc(O)c(OC)c2)cc1	inconclusive: 3.16 µM [inhibitor, full curve]	–
Cc1ccc(-c2csc(NC(=O)CSc3nnc4c(n3)[nH]c3ccccc34)n2)cc1	inconclusive: 7.94 µM [inhibitor, partial curve]	–
Cc1c(NC(=O)c2ccc(-c3ccc(F)cc3)o2)cccc1-c1nc2ncccc2o1	inconclusive: 2.51 µM [inhibitor, partial curve, poor fit]	–
COc1ccccc1CNc1ncncc1-c1ccoc1	inconclusive: 22.4 µM [inhibitor, partial curve]	–
COc1cccc(C(=O)Nc2ccc3nc(SCC(=O)N4CCc5ccccc54)sc3c2)c1	inconclusive: 0.562 µM [inhibitor, single point]	–
O=C(c1cnc(N2CCCCC2)c2ccccc12)N1CCN(c2ccc(F)cc2)CC1	inconclusive: 10 µM [inhibitor, partial curve]	–
NC(=O)CC(NC(=O)Cc1cccc2ccccc12)c1ccc(NC2CCCCC2)c([N+](=O)[O-])c1 (configuration not stated)	inconclusive: 4.47 µM [inhibitor, partial curve]	–
Cc1ccc(C(=O)OCC(=O)Nc2sc3c(c2C#N)CCCC3)cc1NC(=O)c1ccco1	inconclusive: 14.1 µM [inhibitor, partial curve]	–
O=c1c(O)c(-c2ccc(O)cc2)oc2cc(O)cc(O)c12	active: 12.6 µM	–
Cc1cc(/C=C2\SC(=S)N(C)C2=O)c(C)n1-c1cccc(O)c1	active: 7.94 µM	–

SMILES	Potency	activity, negative = inhibition
COCc1cc(/C=N\NC(=O)COc2ccc(Cl)cc2)ccc1OC	inconclusive: 31.6 µM [inhibitor, single point]	–
COc1cc(NC(=O)CCCN2C(=O)CCn3nc(-c4cn(C)c5ccccc45)cc32)cc(OC)c1	inconclusive: 31.6 µM [inhibitor, single point]	–
Cc1cc2c(cc1S(=O)(=O)CCC(=O)N(C)Cc1ccccc1)OCC(=O)N2	inconclusive: 8.91 µM [inhibitor, partial curve]	–
COc1ccc(C(=O)Nc2ccc(N3CCN(c4ccc(OC)cc4)CC3)c(C#N)c2)cc1	inconclusive: 8.91 µM [inhibitor, single point]	–
Cc1nc(NC(=S)Nc2ccccc2)sc1C	inconclusive: 3.16 µM [inhibitor, partial curve]	–
Cc1cccc(NC(=O)CSc2c3c(nc4ccccc24)CCC3)n1	inconclusive: 11.2 µM [inhibitor, partial curve]	–
COc1cc(OC)c(OC)cc1/C=N/Nc1ncnc2c1[nH]c1ccccc12	inconclusive: 2.24 µM [inhibitor, full curve]	–
COc1ccccc1C(=O)Nc1ccc(NC(=O)c2ccco2)c(C)c1	inconclusive: 15.8 µM [inhibitor, partial curve]	–
Cc1nc(NC(=O)/C=C/c2ccccc2)n[nH]1	active: 15.8 µM	–
Cc1nc2c(-c3ccc(F)cc3)c(C)nn2c(C)c1CCC(=O)NCc1cccc(Cl)c1	inactive	–
N#Cc1c(NC(=O)c2cccnc2)sc2c1CCC2	inconclusive: 15.8 µM [inhibitor, single point]	–
CCC(Oc1ccc2c(=O)c(-c3ccccc3OC)coc2c1)C(=O)OCc1ccccc1 (configuration not stated)	inconclusive: 35.5 µM [inhibitor, single point]	–
CCOC(=O)C(C)Sc1ncnc2c1nnn2-c1ccc(F)cc1 (configuration not stated)	inconclusive: 2.24 µM [inhibitor, partial curve]	–
CCOC(=O)C1=C(C)NC(=S)N(C(C)=O)C1c1ccccc1 (configuration not stated)	inactive	–
Cc1cc(C)cc(NC(=O)c2cc3c(=O)n(Cc4ccco4)ccc3nc2C)c1	inconclusive: 31.6 µM [inhibitor, single point]	–
COc1ccc(-c2nc(SCCOc3cc(C)ccc3C(C)C)n3[nH]c(=O)cc3n2)cc1	inconclusive: 14.1 µM [inhibitor, partial curve]	–
CCn1nc([N+](=O)[O-])c(C(C#N)c2nc3ccccc3n2C)c(Cl)c1=O (configuration not stated)	active: 11.2 µM	–
CN(C)c1ccc(C(=S)N2CCN(C(=S)Nc3cccc4ccccc34)CC2)cc1	inactive	–
Cc1cc(N)n2ncc(-c3ccc(F)cc3)c2n1	inconclusive: 31.6 µM [inhibitor, partial curve]	–
COc1nc(-c2ccccc2)ccc1-c1noc(COc2ccccc2)n1	inconclusive: 5.01 µM [inhibitor, partial curve]	–
Cn1ccnc1SCC(=O)c1cc2ccccc2o1	inconclusive: 28.2 µM [inhibitor, partial curve]	–
O=C(Cn1ccc2ccccc2c1=O)NCCC(=O)NC1CCN(Cc2ccccc2)CC1	inactive	–
O=c1[nH]n(-c2cccc(Cl)c2)c2ncccc12	inconclusive: 31.6 µM [inhibitor, single point]	–

SMILES	Potency	activity, negative = inhibition
CCOc1cccc(=O)c2c(C)n(CC(=O)c3ccccc3)c(C)c12	inconclusive: 3.98 µM [inhibitor, partial curve]	–
COc1cccc(NC(=S)N2CCn3cccc3C2c2cccnc2)c1 (configuration not stated)	inconclusive: 8.91 µM [inhibitor, single point]	–
COCCNC(=O)CN(C(=O)CCC(=O)Nc1ccccn1)c1ccc(F)c(Cl)c1	active: 6.31 µM	–
CCc1cc[n+](C2=C([O-])c3ccccc3C(=O)/C2=N\S(=O)(=O)c2cccs2)cc1	active: 12.6 µM	–
S=P(c1ccc(N2CCOCC2)cc1N1CCOCC1)(N1CCOCC1)N1CCOCC1	inactive	–
Nc1cc(-c2ccc(Br)cc2)nn1S(=O)(=O)c1cccc2nsnc12	inconclusive: 20 µM [inhibitor, partial curve]	–
COc1ccc2cc(CCNC(=O)C(C)C)c(=O)[nH]c2c1	inconclusive: 20 µM [inhibitor, single point]	–
Cc1ccc(CNC(=O)[C@H](C)[C@@H]2C[C@@]2(C)[C@@H](NC(=O)OCc2ccccc2)c2ccccc2)o1	inconclusive: 20 µM [inhibitor, single point]	–
COc1ccc2c(CNCCc3ccccc3OC)c(C(=O)O)n(Cc3ccc(F)cc3Cl)c2c1	inconclusive: 12.6 µM [inhibitor, partial curve]	–
Cc1ccc(N(CC(=O)NCc2ccncc2)S(C)(=O)=O)cc1Cl	inactive	–
COc1cc(NC(=S)NC(=O)c2ccccc2F)ccc1NC(=O)c1ccco1	inconclusive: 11.2 µM [inhibitor, partial curve]	–
CCOc1ccc(NC(C(=O)Nc2cccc(C(C)=O)c2)c2ccccc2)cc1 (configuration not stated)	inconclusive: 12.6 µM [inhibitor, partial curve]	–
Cc1ccc(-c2csc3nc(CN(C)Cc4ccccc4)[nH]c(=O)c23)cc1	inconclusive: 28.2 µM [inhibitor, single point]	–
N/C(=N\OC(=O)/C=C/c1ccccc1Cl)c1ccccn1	inconclusive: 25.1 µM [inhibitor, partial curve, poor fit]	–
CCCCC(=O)Nc1ccc(C(=O)NCCc2ccccc2)cc1	inconclusive: 15.8 µM [inhibitor, single point]	–
C=CCS/C(N)=N\N=C\c1c(O)ccc2ccccc12	inconclusive: 7.94 µM [inhibitor, partial curve]	–
CC(=O)OC(/C(O)=C(\C#N)c1nc2ccccc2[nH]1)c1ccccc1 (configuration not stated)	inconclusive: 20 µM [inhibitor, single point]	–
COc1cccc(NC(=O)Nc2cc(-c3cn4cccnc4n3)ccc2OC)c1	inconclusive: 8.91 µM [inhibitor, full curve]	–
CC(=O)Nc1ccc(Nc2ccc(S(=O)(=O)C(F)(F)F)cc2[N+](=O)[O-])cc1	inconclusive: 22.4 µM [inhibitor, partial curve]	–
S=C(NCc1ccco1)Nc1ccc(N2CCOCC2)cc1	inconclusive: 20 µM [inhibitor, single point]	–
COc1ccc(Cl)cc1NC(=S)NNC(=O)c1cccnc1	inconclusive: 25.1 µM [inhibitor, partial curve]	–
